According to PubChem BioAssay (NCI):
Several values for one entry are separate records, joined by “and”; a condition that tells them apart may be missing. Equal values may be shown once.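 48-hour exposure; five concentrations; linearly interpolated endpoints. GI50 marks 50% less growth. The concentration for full growth arrest is given as TGI.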 Peptide text beside a SMILES is read from it.

What follows are molecules tested on NCI-H322M lung (assay: NCI anticancer screen, dose series, 48 h).

Structure (SMILES)	GI50 [µM]	TGI
CCN(Cc1ccccc1)c1ccc(/C=C2\COc3ccccc3C2=O)cc1	> 1000	> 1000 µM
O=C1O/C(=C(\Br)c2ccc([N+](=O)[O-])cc2)c2ccccc21	–	> 100 µM
Cc1cccc(-c2nc(=S)[nH][nH]2)c1	–	> 100 µM
CCN(CC)CC(C(=O)Nc1c(C)cccc1C)/C(C)=N\NC(=S)NN (configuration not stated)	–	> 100 µM
COc1cc2c(c3nc4ccccc4nc13)-c1ccc(SC)c(=O)cc1[C@@H](NC(C)=O)CC2	–	> 100 µM
CC(C)(C)CNCCO	–	> 100 µM
CCN1CC2=C(OC(N)=C(C#N)C2c2ccc(Cl)cc2)/C(=C/c2ccc(Cl)cc2)C1 (configuration not stated)	–	> 100 µM
COc1ccc2c(c1)c(-c1ccc(-c3cn(C)c4ccc(OC)cc34)s1)cn2C	> 100	> 100 µM
C=C1C(=O)O[C@@H]2C[C@@]3(C)CCC[C@H](C)C3=C[C@H]12 (tested in a mixture with another compound)	–	21.3 µM
CN(C)N1C(=C(C#N)C#N)C(c2ccccc2)CC1C#N (configuration not stated)	–	> 100 µM
CC(C)OC(=O)Nc1c([N+](=O)[O-])cc(C(F)(F)F)cc1[N+](=O)[O-]	–	> 100 µM
COC(=O)c1sc2nc(Nc3ccccc3)c(=Nc3ccccc3)sc2c1C	–	> 100 µM
O=C1CC(Nc2ccccc2)c2c(Cl)sc(Cl)c21 (configuration not stated)	–	15.9 µM
c1ccc2[nH]c(-c3ccc(Nc4nc(N5CCCC5)nc5[nH]ncc45)cc3)nc2c1	2.12	8.79 µM
CC(C)(Sc1cc(C(C)(C)C)c(O)c(C(C)(C)C)c1)Sc1cc(C(C)(C)C)c(O)c(C(C)(C)C)c1	–	> 100 µM
C[C@]12CC[C@H]3[C@@H](CC=C4C[C@@H](N5CCCC5)CC[C@@]43C)[C@@H]1C/C(=C\c1ccc([N+](=O)[O-])cc1)[C@@H]2O	–	37.1 µM
CN(C)CCN1C(=O)c2cccc3cc(N)cc(c23)C1=O	–	29.8 µM and 20.5 µM
CN1CCC2(CC1)C(=O)Nc1cc(NC(=O)c3ccc4c(c3)C[C@@H]3C(C)(C)[C@H](O)[C@H](F)C[C@@]3(C)O4)ccc12	25.2	> 100 µM
CCC(C)[C@@H]1NC(=O)[C@@H]2CCCN2C(=O)C(CC(O)CCl)OC(=O)CCNC(=O)[C@H](C)N(C)C(=O)[C@H](C(C)C)N(C)C1=O (some centres not stated) (HELM PEPTIDE1{[CCC(C)[C@H](N[*:1])C(=O)[*:2]].[meV].[meA].[bAla].[O=C(C(CC(O)CCl)O[*:1])[*:2]].P}$PEPTIDE1,PEPTIDE1,1:R1-6:R2$$$V2.0)	–	> 100 µM
Cc1ccccc1NC(=O)C(=O)C(C1OC(=O)c2ccccc21)[N+](=O)[O-] (configuration not stated)	–	> 100 µM
c1ccc(C/C(=N\Nc2nc3ccccc3[nH]2)c2ccccn2)cc1	–	0.954 µM
CCCCOc1ccc(/C=C/C2=[N+](CCO)CCO2)cc1	–	> 100 µM
O=c1cc(-c2cccc(Cl)c2)[nH]c2cc3c(cc12)OCO3	0.96	75 µM and > 100 µM
O=NN(CC1(O)OCC(O)C(O)C1O)C(Cc1c[nH]c2ccccc12)C(=O)O (configuration not stated)	–	> 100 µM
Cn1c2ccccc2n2c(=O)c(-c3ccc(Cl)cc3)nnc12	–	> 100 µM

Structure (SMILES)	GI50 [µM]	TGI
Cc1cc2c(cc1Cl)SSc1cc(Cl)c(C)cc1S(=O)(=O)Nc1nc(N)nn1C(O)n1nc(N)nc1NS2(=O)=O	–	> 10 µM
CCOC(=O)c1ccc(-c2onc(C)c2Br)[nH]1	–	> 100 µM
CCCCCCCCCCCCCOCCOCCOCCCCC(O)CCCCCCCCCC1=C[C@H](C)OC1=O (some centres not stated)	–	48.6 µM
C[N+](C)(N)Cc1nc(-c2ccc(Cl)cc2)no1	–	> 100 µM
O=C(Nc1ccccc1/C=C/c1n[nH]c2ccccc12)c1ccccc1	4.8	18.2 µM
CCOC(=O)c1sc2nc(=S)[nH]c(NC(N)=S)c2c1C	19.9	51.5 µM
N#C/C=C(/NC(=O)Nc1ccccc1)N1CCCC1	–	> 100 µM
O=S(=O)(O)c1cc(O)c(N=NC2S(=O)(=O)OCCOS2(=O)=O)c2ccccc12	–	> 100 µM
CCC(=O)N1C(=S)SC[C@H]1C(=O)OC	–	> 100 µM
COC(=O)/C(=C(/C)c1ccco1)P(=O)(OC)OC	–	> 100 µM
COc1cccc(C2CC(C)(O)Oc3cc4c(cc32)OCO4)c1 (configuration not stated)	–	> 100 µM
C[C@]12CC[C@H]3[C@@H](CCC4=CC(=O)CC[C@@]43C)[C@]1(O)CC[C@]2(O)C(=O)CO	–	> 100 µM
CCOC(=O)c1nc(SC)sc1NC(=O)c1ccc(OC)cc1	–	> 100 µM
Cc1cnoc1/N=C1\C=C(Nc2oncc2C)C(=O)c2ccccc21	–	> 100 µM
COC(=O)C1=C(C(=O)OC)C23CC4CCC2(C(=O)C1O3)C4(C)C (configuration not stated)	–	> 100 µM
COc1ccc(C2c3cc4c(cc3OC(N3CCOCC3)C2C)OCO4)cc1OC (configuration not stated)	–	> 100 µM
O=c1oc2ccccc2cc1P(=O)(O)O	–	> 100 µM
[O-]c1ccccc1C=NCCN=Cc1ccccc1[O-].[O]=[U+2]=[O]	31.3	> 100 µM
CCOC(=O)c1nc2ccccc2nc1Nc1cc(OC)c(OC)c(OC)c1	–	> 100 µM
COc1ccc(CC(C)NCC(O)c2ccc(O)c(NC=O)c2)cc1 (configuration not stated)	–	> 100 µM
CN(C)CC1CCC/C(=C\c2ccc(Cl)c(Cl)c2)C1=O (configuration not stated)	–	28.9 µM
CN(C)CCNc1c(O)c2c(c(O)c1Cl)C(=O)C=CC2=O	–	4.58 µM
CS(=O)(=O)N(CCC#N)c1ccc(/C=C2\N=C(c3ccccc3Cl)OC2=O)cc1	–	> 100 µM
Cc1cc2c(cc1Cl)SC(=Nc1ccc(Cl)cc1)N(S(=O)(=O)c1ccc(Br)s1)S2(=O)=O	20.5	51.8 µM
CCCCCCCCCCCC(c1ccccc1)[N+](C)(C)C (configuration not stated)	2.28	7.46 µM

Structure (SMILES)	GI50 [µM]	TGI
COc1cc(/C=C2\CC3C4CC=C5C[C@@H](O)CC[C@]5(C)C4CC[C@]3(C)\C2=N\O)cc(OC)c1OC (some centres not stated)	–	> 100 µM
CCOP(=O)(OCC)/C(C#N)=C/c1nc[nH]c1C	–	> 100 µM
CC1COS(=O)N1c1ccccc1 (configuration not stated)	–	> 100 µM
C/C(=N/NC(=S)N1CCCCCC1)c1cccc(/C(C)=N\NC(=S)N2CCCCCC2)n1	–	2.95 µM
CCCCCCCCCCCC1=NC(C)(C)CN1C(C)C	5.44	18.4 µM
COc1ccc(/C=C2\C(=O)N(C(=O)c3ccc(NC(C)=O)cc3)N=C2C)cc1OC	–	> 100 µM
C[C@]12C(=O)OC[C@H](c3ccccc3)N1C(=O)N(Cc1ccccc1)[C@@H]2CO	–	> 100 µM
O=[N+]([O-])C1=Cc2c(O)ccc(O)c2C2OC=CC12 (configuration not stated)	–	59.7 µM
CC(Nc1cccc(Cl)c1)c1ccncc1 (configuration not stated)	–	> 100 µM
Clc1ccc2c(NCCCCNc3nc(N4CCOCC4)nc4ccccc34)ccnc2c1	3.69	14.5 µM
O=S(=O)(c1ccccc1)N1CCC1c1ccccc1 (configuration not stated)	–	> 100 µM
COc1cc(OC)c(-n2[nH]c(=O)n(C)c2=O)c(OC)c1	–	> 100 µM
CC(=O)N1N=C(c2ccccc2)NC(=O)C1c1cc(C)c(O)c(C)c1 (configuration not stated)	–	80.1 µM
CN(c1ccccc1)c1nc(=[N+](C)C)ss1	–	> 100 µM
O=[N+]([O-])C(/C(Cl)=C(/Cl)N1CCOCC1)=C1\Nc2ccccc2O1	–	> 100 µM
COC(=O)C12C(=O)CC3CCC1C32C(=O)OC (configuration not stated)	–	> 100 µM
N#Cc1cnc2ccc(NCc3cnc[nH]3)cc2c1Nc1ccc(F)c(Cl)c1	1.15	> 100 µM
C=C(C)[C@@H]1CC[C@]2(C(=O)OC)CC[C@]3(C)[C@H](CC[C@@H]4[C@@](C)(CCc5nn[nH]n5)[C@H](C(=C)C)CC[C@]43C)[C@@H]12	17.4	38 µM
CCn1c(-c2nonc2N)nc2cnc(Oc3cccc(NC(=O)c4ccc(OCCN5CCOCC5)cc4)c3)cc21	1.33	> 25 µM
CCN(CC)C(=O)c1cccc2c(OC)ccc(OC)c12	–	> 100 µM
Cc1c2ccccc2c(=O)n2c(-c3ccccn3)cccc12	–	> 100 µM
O=c1[nH]c2c(C(F)(F)F)c(Cl)c(-c3ccccc3)nc2o1	–	40.4 µM
Cc1cc[c]([Sb]2[O]C(CO)C(C(O)C(O)C(=O)O)[O]2)cc1 (configuration not stated)	65.6	> 100 µM
Cc1ccc2[nH]c3c(c2c1)C1CCC(C(C)(C)C)CC1C1C(=O)N(c2ccc(Oc4ccccc4)cc2)C(=O)C31 (configuration not stated)	–	> 100 µM
CN(C)c1ccc(-c2c(C#N)c(-c3ccccc3)n(NS(=O)(=O)c3ccccc3)c(=O)c2C#N)cc1	–	> 100 µM

Structure (SMILES)	GI50 [µM]	TGI
Fc1ccc(/C=C2\COCC3=C2NC(=S)NC3c2ccc(F)cc2)cc1 (configuration not stated)	–	59.5 µM
Nc1nc(N)c2cc(S(=O)(=O)c3cccc(C(F)(F)F)c3)ccc2n1	5.42	> 100 µM
CC(C)C(Sc1nc(-c2ccccc2)c(-c2ccccc2)[nH]1)C(=O)N/N=C/c1ccc(Cl)cc1 (configuration not stated)	–	> 100 µM
CC(C)(C)OC(=O)C1C(=O)NC(=O)CC1C(OCc1ccccc1)C(OCc1ccccc1)C(COCc1ccccc1)OCc1ccccc1 (configuration not stated)	–	> 100 µM
COCCn1c(Nc2ccc(C(=O)NO)cc2)nc2ccccc21	3.48	> 100 µM
CCN(CC)CCN1C(=O)C2C3C(C)=CC(OC(C)=O)(CC3C)C2C1=O (configuration not stated)	> 100	> 100 µM
COc1nc2ncc([C@@H](OC(C)=O)[C@@H](COC(C)=O)OC(C)=O)nc2c(=O)n1C	–	> 100 µM
CCOc1cc2c(cc1OC)c[n+](C)c1c3cc(OC)c(OC)cc3ccc21	–	> 100 µM
Nc1nc(N)c2cc(-c3cc4ccccc4[nH]3)ccc2n1	–	> 100 µM
[N-]=[N+]=NC1C(Cl)C(=O)NC(=O)N1[C@H]1C[C@H](O)[C@@H](CO)O1 (some centres not stated)	–	> 100 µM
CC[O-].CC[O-].[O-]c1ccccc1C=NC12CC3CC(CC(C3)C1)C2.[O-]c1ccccc1C=NC12CC3CC(CC(C3)C1)C2.[Ti+4]	> 100	> 100 µM
OC1C2CN3CCN(C2)CC1(c1ccccc1)C3 (configuration not stated)	–	> 100 µM
Oc1ccc(CCNc2nc3ccccc3c3[nH]c4ccccc4c23)cc1O	4.03	15.1 µM
COc1cc(OC)c(OC)cc1/C=C/c1ccccn1	–	> 10 µM
O=C1C2C3SC(c4cc5ccccc5cc43)C2C(=O)N1c1ccccc1 (configuration not stated)	–	> 100 µM
COC1CCC(O)C(CO)O1 (configuration not stated)	–	> 100 µM
COP(=O)(OC)[C@@](O)(c1ccccc1)[C@@H](O)[C@H](O)c1ccccc1	–	> 100 µM
CC(=O)Nc1ccc(CC[C@H]2CCC/C=C/[C@@H]3C[C@H](O)C[C@H]3[C@H](O)/C=C/C(=O)O2)cc1	0.204	5.19 µM
c1ccc(CCCN2C3CCC2CN(CCOC(c2ccccc2)c2ccccc2)C3)cc1	–	25.3 µM
N#Cc1nc2cc(Cl)c(Cl)cc2nc1-c1ccc(Cl)cc1	40.7	> 80 µM
O=c1[nH]nc(-c2ccc3ccccc3c2)[nH]1	–	> 100 µM
CC1=NC2(C(=O)O)C3(C(=O)O)N=C(C)OC3(C(F)(F)F)C2(C(F)(F)F)O1 (configuration not stated)	–	> 100 µM
CN1CCN(CCCOC(=O)c2c3c(n4ccccc24)C(=O)c2ncccc2C3=O)CC1	< 0.02	5.34 µM
